Data published in the RNAGym collection of RNA variant scans (doi:10.7554/elife.90254).
Read counts are not given, so values of variants with three or more changes are uncertain.

B1: LINE1-mini (parent)
chain: GGCAGAGCUCAACACAGCGUGGCAAAGUGGCUGUGGCUAGACUGCC

Variants of: B1
Assay: self-cleavage, relative activity (ratio to wild type); higher = more cleavage; in vitro, sequencing; the parent is a self-cleaving ribozyme

Variant	self-cleavage
G2U U9A G29C	0
C3A A26G G36U C42U	0.14
G2U U32G G40A C42U	0.04
G2U G19A G35C	0.03
G2U U9C U20C A39U	0.03
C3A C8U A14G G21A G44U	0.64
C3A G29U C37U C46G	0.02
G2U G22A A26U A41U	0.04
C3A A4G G29C	0.17
C3A C8U C31U G36A	0.52
G2U U9G U20C C31U	0.02
C3A A11C G27U	0.03
C3A A11G C23U G33A	0.04
C3A G7C A39C	0.12
G2U G7A C10U	0.01
C3A A6U C8U A12C C45A C46U	0.02
C3A C13G C15A C18A U43C	0.08
C3A G5U A25U C46G	0.1
C3A A4U C10U G19U A26C G40C	0.05
C3A G27C G44U	0.96
C3A G29A G30A	0.23
G2U G21U G22A C31G A41U	0.01
C3A A12G A16G G35U	0.05
C3A G17U C31U	0.09

Variant	self-cleavage
C3A C15G G22A C23G C37G	0.01
C3A C10A A11C G17U G35A	0.01
C3A C10U C15A U20G G29U U32A A41G C45A	0.03
C3A G27C C42A C45U	0.06
C3A A12U A14C	0.01
C3A A25C A26C C45U C46A	0.44
C3A G19C C23A	0.04
G2U G19A G22A G30C G33A	0.02
G2U U20A G21A	0.07
C3A G19C U43A	0.11
C3A G7C C8G A41C	0.42
C3A A4U A6G U9A G40A G44U	0.71
G2U U9A A11C G19U G29C	0
C3A A14U C15U G17U C18G	0.18
G2U G5C U20G	0.01
G2U G5A G29U G30A	0.04
G2U G17A C31A	0.07
G2U G5A C8U C23A G30A	0.16
C3A G17U G30C	1.22
C3A C23A G30U	0.9
C3A A41C U43G	0.18
G2U G5C A11G	0.01
C3A G17U U20C G30A	0.57
G2U U28A G36A G40A	0

Variant	self-cleavage
C3A G19A A25C G29C U34A	0.12
C3A G7U U9G A11G C37U	0.15
G2U G5A A14G G35A	0
C3A A11G U20G G33U	0.02
C3A G5U C13G G17U G27A C42A	0.12
G2U G7C C10U A26G G27A C42A	0.02
G2U G7A U20A A26C	0.05
C3A G5A C23A A41G C42A	0.74
G2U G22A A26U A39U C46G	0
G2U U9A A11U C37A	0.01
G2U G5A C15A A16G	0.11
G2U G7C A11C C13A G21C G29C	0
C3A C13G C15G C23U G44C	0.03
G2U U9A G17C U34A	0.04
C3A A25G G44A	0.46
C3A A12G C31G	0.02
G2U G5U C8U A11G G29A G40U	0.01
C3A A24C G40C	0.15
C3A G5C C13A A26G G27A	0.15
G2U G5A G21A U43A	0.18
C3A C10A U34C	0.05
C3A C37G G40C	0.11
C3A A4G C10G U28A	0.03
C3A G7A A11C C18U C31U C37U C42G G44A	0

Variant	self-cleavage
C3A C13G A16G G44C	0.03
C3A G5U U9C	0.07
G2U G5U C15U	0.02
C3A G30A C42G	0.13
C3A C8G A11C G21A G29A C46G	0.02
C3A G7C G17C	0.07
G2U G22U A25G	0.13
C3A A16G C18A U20A A24C	0.1
G2U U20C A41C	0.02
C3A A11U C42G	0
C3A A6C A14U C37G	1.01
C3A A16G C18A G36A G40A	0.45
C3A A4G C8U	0.23
C3A G29C A39U	0.11
C3A A4U C10A G17A A24U G29U G30A U43A	0.04
C3A G7C G21U	0.06
C3A G5U A24U A39C C46A	0.29
G2U G7A A12C G22U G40A	0.01
C3A C10U A14U C31U C45A	0.05
C3A G5C C8A G19U A24U C42A	0.62
C3A A6C G36A A41U	0.19
C3A A11U C13G A14U U34G	0.01
C3A C8U C10A A39C	0.03
C3A G17A U28C G30A G35C	0.15

Variant	self-cleavage
G2U G19U C31A G35C	0.04
C3A G7C G30A	0.08
G2U U32A C37A	0.02
C3A C13G C37G	0.07
C3A C13G C37A	1.51
G2U G19U U38G G40U	0
C3A C18U U20A U34A	0.07
C3A G5C C15A C45A	0.09
G2U G5A G30U C37A C42A	0.03
G2U G17C G19U U32A C37A	0.08
C3A G5U C15U C31A	0.03
C3A A12U A14C U20C C42G	0.02
C3A G7U U9G	0.32
C3A G5C G7A C8A G19C G21A G40C C45A	0.08
C3A G29A G35U	0.18
G2U U9A G17U A39G	0.02
C3A C8U C15A U34A	0.22
C3A C13U A16U G30U C31G	0.62
C3A A6U A11G A14U A39G	0.04
G2U U9G G22U	0
C3A C15A G21U	0.31
C3A A4C G7U A14G A41U	0.53
G2U U9A G33A A39C	0
C3A G21A G35C G36U	0.35

Variant	self-cleavage
G2U G33A U38A G40A	0.01
G2U G21U C37A A39U	0.02
G2U U32G C45U	0.01
C3A A6C A16C A41C	0.11
C3A G5U G7A U9C U20G A39G	0.02
C3A C10A C31U A39G G40A	0.06
G2U G5U C10A C23A	0.01
C3A G7A U28G C31G	0.12
C3A A6C C18G G35C A41U	0.2
C3A C15A G22C G40U	0.13
G2U G19U A26U C31U	0.07
C3A A4G A12C G30U U32A	0.03
C3A G17A G19U A41C	0.09
C3A C10U G30A	0.68
C3A A11G U34G C46A	0.06
C3A C10U G19U	0.14
C3A A4U G33U	0.13
C3A G5U C18G C31U	0.02
C3A C15A G33U	0.12
C3A C18G U20G G36U A39C C46U	0.13
C3A G21C U38A C46G	0.2
C3A A26C C37A	0.43
G2U G5A G22C C46A	0.02
C3A C10G G30A C46U	0.07

Variant	self-cleavage
G2U U34G C46A	0.03
C3A C23U A24G G44A	0.52
C3A C13G A14G G17U	0.26
C3A A4U G17U G19A	0.52
C3A A4G G19A U34G	0.02
C3A A16U G17C G36U C46U	0.14
C3A G5C A14G G19A U32C	0.16
C3A A6C C37U U43C	0.29
C3A C10G U43A	0.02
C3A C13A U34A	0.11
C3A C13U A16G C18U G22A A25G C37A U38G	0.11
G2U U9A U34G	0.03
C3A A4G C13G A14G G35U U38G	0.03
C3A A4U A11U	0.03
G2U U20A G27A	0.06
C3A C23G A24G G33C G40U	0.01
C3A G5U U9A C10G G17C	0.05
G2U G5U U20C A24C G40C	0.01
C3A G5C G17C G21C U38C A41G	0.01
G2U U32A A41C	0.06
C3A C18A G44A	0.53
C3A G5A A6U A12G G29U G30U U34G C42G C45U	0.26
C3A C8G G40U A41C	0.11
